# Data as given in publication PMC4336329 (PLoS ONE, 2015).
# Among all 310,000 compounds or so, about 14,000 (4.5%) showed an effect of 50% or more. Effects have a minus sign here. The list shows a part of the results.
# Biological target: human ether-à-go-go-related gene (hERG) potassium channel (human, UniProt Q12809)
# Test: primary screen, population patch clamp on CHO cells stably expressing hERG
# 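Note: peak tail current of the secondary pulse compared with the same well before compound.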
# human ether-à-go-go-related gene (hERG) potassium channel, sequence (Q12809 whole entry, looked up): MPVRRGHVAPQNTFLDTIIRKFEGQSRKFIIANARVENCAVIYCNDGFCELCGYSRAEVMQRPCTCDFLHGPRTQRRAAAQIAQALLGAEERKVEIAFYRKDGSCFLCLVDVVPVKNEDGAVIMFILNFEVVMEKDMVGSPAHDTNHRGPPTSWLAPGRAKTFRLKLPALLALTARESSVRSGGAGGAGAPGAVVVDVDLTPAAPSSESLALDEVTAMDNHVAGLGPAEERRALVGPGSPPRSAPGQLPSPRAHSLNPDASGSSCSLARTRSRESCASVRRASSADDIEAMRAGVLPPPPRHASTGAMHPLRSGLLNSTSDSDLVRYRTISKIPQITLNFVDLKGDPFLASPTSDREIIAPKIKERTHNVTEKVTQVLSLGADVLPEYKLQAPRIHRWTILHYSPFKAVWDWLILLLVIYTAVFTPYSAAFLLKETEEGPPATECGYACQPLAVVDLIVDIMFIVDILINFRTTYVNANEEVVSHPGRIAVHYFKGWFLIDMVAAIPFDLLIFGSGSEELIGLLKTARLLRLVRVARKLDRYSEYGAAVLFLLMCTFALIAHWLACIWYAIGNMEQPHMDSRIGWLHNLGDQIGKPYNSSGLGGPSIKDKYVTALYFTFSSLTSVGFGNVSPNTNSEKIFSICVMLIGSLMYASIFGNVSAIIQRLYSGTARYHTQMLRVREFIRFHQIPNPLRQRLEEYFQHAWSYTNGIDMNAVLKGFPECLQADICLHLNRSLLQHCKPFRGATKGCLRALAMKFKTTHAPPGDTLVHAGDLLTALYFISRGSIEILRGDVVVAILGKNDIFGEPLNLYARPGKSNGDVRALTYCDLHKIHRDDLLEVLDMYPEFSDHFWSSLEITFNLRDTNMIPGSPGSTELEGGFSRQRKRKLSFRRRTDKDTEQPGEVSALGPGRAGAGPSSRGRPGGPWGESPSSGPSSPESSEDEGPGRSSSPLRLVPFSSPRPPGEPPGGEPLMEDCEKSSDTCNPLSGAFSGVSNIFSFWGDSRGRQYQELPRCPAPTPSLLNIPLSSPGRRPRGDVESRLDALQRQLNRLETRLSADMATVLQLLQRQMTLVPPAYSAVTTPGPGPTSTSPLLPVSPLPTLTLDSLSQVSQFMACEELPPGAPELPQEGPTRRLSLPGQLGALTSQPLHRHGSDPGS
row,SMILES,"hERG current change (%, negative = inhibition) at 10uM [%]"
1,CNC[C@H](O)[C@@H](O)[C@H](O)[C@H](O)CO.Cc1c(Nc2ncccc2C(=O)O)cccc1C(F)(F)F,10.9
2,O=C(CSc1nnc(SCc2ccc(Cl)cc2)s1)N1CCN(C(=O)c2ccco2)CC1,-33.7
3,NC(=O)C1CC(=O)N(Cc2ccc3c(c2)OCO3)C(=Nc2ccccc2)S1 (stereo not shown),9.5
4,Cc1ccc(CN2CCN(Cc3ccc4c(c3)OCCO4)CC2CCO)cc1 (stereo not shown),-39.8
5,N#Cc1ccccc1S(=O)(=O)N1CCN(C(=O)c2cc(=O)[nH]c3ccccc23)CC1,4.62
6,O=C(N/N=C/c1cc2c(cc1Cl)OCO2)c1ccccn1,18.5
7,Cc1[nH]c2ccccc2c1/C=N/n1cnnc1,10.2
8,CN1C(=O)CC(N2CCN(c3ccc(Cl)c(Cl)c3)CC2)C1=O (stereo not shown),-26.4
9,Cc1cccc(CCNCc2cc3cccc(C)c3[nH]c2=O)c1,-64.1
10,CNc1nc(-c2c(C)n(C)c3ccc(OC)cc23)cs1,19.2
11,COc1ccc(-c2cc(C(=O)NC3CCCC3)c3ccccc3n2)cc1OC,6.47
12,CCC(C)[C@@H]1NC(=O)N(CCCN2CCCC2=O)C1=O (stereo partly shown),14.9
13,CCOc1ccc(OCCOCCOc2c(Cl)cccc2Cl)cc1,-0.499
14,O=C(Nc1ccc2c(c1)Cc1ccccc1-2)c1cccnc1,9.56
15,O=c1cc(O)c2c(=O)n(Cc3ccccc3)c3ccccc3c2o1,13.1
16,CCOP(=O)(OCC)c1nc(-c2ccc(Cl)cc2Cl)oc1N1CCCCC1,-34.8
17,N#Cc1cc(F)c(N2CCNCC2)cc1Cl,3.42
18,CCN1CCN(CC(O)COc2ccc(C(C)=O)cc2)CC1.Cl (stereo not shown),2.15
19,CCCC(=O)c1cc(F)c(N2CCN(C(=O)OCC)CC2)cc1C,-2.77
20,COc1ccc(CCN(C)C(=O)Cc2ccc(-c3ccccc3)cc2)cc1OC,-0.187
21,CC(C)(C)S(=O)(=O)c1cnc(N2CCCCC2)nc1N,10.5
22,CN(C)CCCN(C(=O)COc1ccccc1)c1nc2ccc(Cl)cc2s1.Cl,-67.1

row,SMILES,"hERG current change (%, negative = inhibition) at 10uM [%]"
1,CS(=O)(=O)N(CC(=O)N1CCN(Cc2ccccc2)CC1)c1cccc(Cl)c1,-63.8
2,COC(=O)C1=C(c2cccc(C#N)c2)C[C@@H]2CC[C@H]1N2C(=O)NCc1ccco1,-11.1
3,CC(=O)N1N=C(c2cccc([N+](=O)[O-])c2)OC1c1cccc(Br)c1 (stereo not shown),-19.9
4,COc1ccc([C@H]2CC(=O)C=C(c3ccc4[nH]ccc4c3)C2)cc1OC,9.42
5,O=C1NCCN(Cc2ccc(Cl)c(F)c2)C1CC(=O)N1CCCO1 (stereo not shown),12.1
6,COc1ccc(OC)c(N/C=C/C(=C(C#N)C#N)N(C)C)c1,-6.32
7,COc1ccc(NC(C)=O)cc1NC(=O)CCn1c(=O)sc2ccccc21,-2.39
8,CO/N=C(/CS(=O)Cc1ccc(Cl)cc1)c1ccc(Cl)cc1 (stereo not shown),-12.6
9,CCC(=O)N/C(N)=N/c1nc(C)c2cc(OC)ccc2n1,-17.5
10,COc1cc(CN(C(=O)c2ccco2)C2CCS(=O)(=O)C2)cc(OC)c1OC (stereo not shown),15.4
11,O=C(O)C(=O)O.O=C1CCCN1CN1CCCCC1,0.00358
12,Cc1cccc(CNc2ccc(C(CC(N)=O)NC(=O)c3cccc(Br)c3)cc2[N+](=O)[O-])c1 (stereo not shown),-19.8
13,COc1cccc(SCc2noc(C(=O)NCCC(C)C)c2C(=O)NCCC(C)C)c1,12.4
14,COc1ccc(C(OC(=O)c2ccco2)C(=O)NC2CCCCC2)cc1 (stereo not shown),7.11
15,C[N+]1(CC(=O)NNc2c3ccccc3nc3ccccc23)CCOCC1.[Br-],3.64
16,O=C(c1ccc(F)cc1F)N1CCN(S(=O)(=O)c2ccc3c(c2)OCCO3)CC1,-14.1
17,OC(Cn1ccnc1)c1ccc(Cl)cc1Cl (stereo not shown),-5.76
18,Cc1cccc(N2CCN(C(=O)Cc3c(C(=O)O)[nH]c4ccc(Cl)cc34)CC2)c1C,7.86
19,COc1ccccc1C(=O)Nc1nc2ccc(S(C)(=O)=O)cc2s1,-17.2
20,Cc1ncc(CN2CCC(C(=O)Nc3cccc(-c4cscn4)c3)CC2)cn1,-11.9
21,CCCS(=O)(=O)c1nnnn1-c1cccc(OC)c1,-23.9
22,O=C(Cc1ccccc1)Nc1ccc2c(c1)CCC2,-13.2

row,SMILES,"hERG current change (%, negative = inhibition) at 10uM [%]"
1,COC(=O)[C@@]1(C#N)[C@@H]2C=CC(C(C)=O)=CN2[C@@H](C(N)=O)[C@@H]1c1ccc(F)cc1,-5.5
2,O=[N+]([O-])c1cccc(-c2noc3c2-c2nc(Cc4cccc5ccccc45)sc2CC3)c1,16.6
3,CC(C)CCNC(=O)CN(Cc1ccco1)C(=O)CCC(=O)Nc1nccs1,-9.38
4,Cc1cc(=O)oc2cc(OCC(=O)NCCN3CCOCC3)c(Cl)cc12,16.8
5,CCOc1ccc(NC(=O)NC2CCOC(C)(C)C2)cc1 (stereo not shown),-14.2
6,O=C(CNC(=O)c1ccccc1Cl)N/N=C/c1ccc([N+](=O)[O-])s1,-24.6
7,O=C(N/N=C/c1sc(N2CCCCC2)nc1-c1cccs1)c1cccnc1,11.8
8,C=CCOc1ccc(/C(O)=C2/C(=O)C(=O)N(CCN3CCOCC3)C2c2ccc(C)cc2)cc1 (stereo not shown),-8.77
9,Cc1cccc(OCc2ccc(C(=O)N3CCOCC3)o2)c1,15
10,Fc1ccc(NC(=S)N2CCCC(c3ccccc3)=N2)cc1,-3.2
11,Cc1ccc2cccc(S(=O)(=O)NC3CCS(=O)(=O)C3)c2n1 (stereo not shown),-7.02
12,CC1CCCN(C(=O)Cn2nnc(-c3ccc([N+](=O)[O-])cc3)n2)C1 (stereo not shown),-11.7
13,CC/C(=N\NC(=O)C1CC1)c1cccc(Cl)c1,30.9
14,COc1ccc(OC)c(C2=C[N+](=O)C(C)(C)C(C)(C)N2[O-])c1,-3.85
15,CCC1CCC(C(=O)NC(CCSC)C(=O)NCCN(CC(C)C)CC(C)C)CC1 (stereo not shown),-34.4
16,CC(C)(C)NC(=O)CN(C(=O)CS(=O)CC(=O)Nc1ccc(F)cc1)c1ccc2c(c1)OCCO2 (stereo not shown),6.88
17,CC(C)C(CC(=O)N1CCCCC1)C1CCOC(C)(C)C1 (stereo not shown),-2.24
18,COc1ccc(NCC(=O)N2CCCC2)cc1Cl,8.2
19,O=c1[nH]nc(CNc2ccc(OC(F)(F)F)cc2)c2ccccc12,-27.2
20,COc1ccc(N2CCN(CC(=O)Nc3c(C)cc(C)cc3C)CC2)cc1,0.738
21,CC(C)n1cnc2c(oc3ccccc32)c1=O,3.35
22,COc1ccc(OC)c(C(=O)N(C)C2CCCN(Cc3ccccc3F)C2)c1 (stereo not shown),-4.14

row,SMILES,"hERG current change (%, negative = inhibition) at 10uM [%]"
1,COc1ccc2nc(NC(=O)C3CCN(S(=O)(=O)c4cccc5nsnc45)CC3)sc2c1,0.473
2,CCOCCCNC(=O)CCc1ccc(S(=O)(=O)Nc2ccc(C)cc2)cc1,7.79
3,O=C(c1ccc(Br)cc1)N(C1=NCCCCS1)c1ccccc1,-4.82
4,C/C=C(\C)CN1CCC(n2nccc2NC(=O)CCOc2ccccc2)CC1,-31.5
5,Cn1cnc([N+](=O)[O-])c1Sc1nc2ccccc2[nH]1,5.38
6,O=C(c1ccccc1)C(c1ccccc1)c1ccccc1,-2.7
7,COCCn1c(C)cc(/C=C(\C#N)C(=O)OCC(=O)N(C)c2c(N)n(Cc3ccccc3)c(=O)[nH]c2=O)c1C,2.84
8,O=C(O)CCN1C(=O)S/C(=C\c2cccnc2)C1=O,13.6
9,COc1ccc(-c2csc(NC(=O)CSc3nc(C)nc4sc(C(=O)O)c(C)c34)n2)cc1,11.9
10,Cc1ccc(S(=O)(=O)NCC(=O)NCc2cc(=O)n(C)c(=O)n2C)cc1,26.1
11,Cc1ccc(NC(=O)CC2CS(=O)(=O)CC2CC(=O)Nc2ccc(C)c(C)c2)cc1C (stereo not shown),6.08
12,FC(F)(F)c1cccc(N2CCN(CC3CC=CCC3)CC2)c1 (stereo not shown),-4.59
13,CN(C(=O)COC(=O)c1cn(C)c2ccccc12)C1CCCCC1,6.55
14,COc1ccc(Cl)cc1NC(=O)C(=O)NCc1ccncc1,-27.5
15,O=C(NC(=S)N1CCOCC1)c1ccc(F)cc1,24.4
16,O=C(NCc1ccncc1)C(=O)NCC(c1ccco1)N1CCN(c2ccc(F)cc2)CC1 (stereo not shown),-27.2
17,CCC(C(=O)Nc1ccccc1)c1ccccc1 (stereo not shown),7.86
18,Cc1ccc(Nc2ncccc2C(N)=O)cc1,19.5
19,O=C(NNc1ccccc1)C(=O)NNS(=O)(=O)c1ccc(CCCl)cc1,2.82
20,Cc1nnc(NC(=O)CSc2nc3c(c(=O)n(C)c(=O)n3C)n2C(C)C)s1,-0.769
21,Cc1ccc(C(=O)Cn2c(C(=O)OCCO)cc3ccccc32)cc1,6.92
22,Cc1ccc(OCCNc2cc(N3CCN(CCO)CC3)ccc2[N+](=O)[O-])cc1C,-7.99
